Test results: PubChem BioAssay AID1030 (National Center for Advancing Translational Sciences (NCATS), 2008)
About 16,000 (7.3%) of roughly 220,000 compounds were called active. The inconclusive results got no clear call from the source; some entries with a clear call stand among them for comparison. Calls come from the whole dose curve; as a rule, active = well fitted inhibition curve with a large enough effect (not every such curve was filed as active); inconclusive = small, poorly fitted or top-dose-only effect, or another doubt; inactive = no such curve, though single readings can be large or run the other way. A potency beside an inconclusive call is a rough fit, not a confirmed value.

These compounds were tested against Aldehyde dehydrogenase 1A1 (Homo sapiens) (UniProt P00352) (assay: qHTS Assay for Inhibitors of Aldehyde Dehydrogenase 1 (ALDH1A1)). Settings: Purified ALDH1A1, NADH fluorescence, propionaldehyde substrate; series mostly up to 75.3 µM; activity, negative = inhibition: at the top concentration.
Chain of UniProt P00352 (P00352 whole entry, looked up): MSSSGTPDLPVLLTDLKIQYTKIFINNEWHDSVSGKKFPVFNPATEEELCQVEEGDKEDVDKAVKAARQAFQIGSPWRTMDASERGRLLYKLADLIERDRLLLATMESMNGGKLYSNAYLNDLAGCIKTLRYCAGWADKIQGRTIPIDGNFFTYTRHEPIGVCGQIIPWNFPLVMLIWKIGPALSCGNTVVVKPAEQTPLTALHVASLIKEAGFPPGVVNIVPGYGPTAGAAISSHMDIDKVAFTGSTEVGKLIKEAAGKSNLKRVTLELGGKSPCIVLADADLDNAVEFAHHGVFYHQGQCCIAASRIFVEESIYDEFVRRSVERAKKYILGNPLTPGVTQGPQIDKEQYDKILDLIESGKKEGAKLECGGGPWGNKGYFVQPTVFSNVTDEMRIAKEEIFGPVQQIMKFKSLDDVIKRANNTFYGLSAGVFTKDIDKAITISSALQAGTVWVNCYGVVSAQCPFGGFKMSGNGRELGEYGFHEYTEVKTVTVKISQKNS
Potency is the fitted concentration of half-maximal effect; tags give direction and shape of the fitted curve.
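Throughout, for activity, negative = inhibition: plate controls were no enzyme wells and a reference inhibitor.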

Potency, active:
CCC1CCCCN1C(=O)CSc1nnc(-c2c[nH]c3ccccc23)o1 (stereo unspecified) 12.6 µM
Cc1cc(C(=O)CCl)c(C)n1-c1ccon1 0.631 µM
O=[N+]([O-])c1cc(C(F)(F)F)ccc1N1CCC(O)CC1 11.2 µM

Potency, inconclusive:
CC(=O)Nc1ccc(NC(=O)C2CC(=O)N(c3ccccc3Cl)C2)cc1 (stereo unspecified) 11.9 µM [inhibitor, partial curve]
O=C(O)c1ccc(N(c2ccccc2)c2ccccc2)cc1 35.5 µM [inhibitor, single point]
COc1ccc(CC(=O)OCc2cc3ccc(C)cc3[nH]c2=O)cc1 39.8 µM [inhibitor, single point]
OCCN1CCN(c2cc(-c3ccccc3)c3ccccc3n2)CC1 35.5 µM [inhibitor, single point]
Cc1csc(Nc2cccc3ccccc23)n1 39.8 µM [inhibitor, single point]
CN(C)c1ncc2nc(-c3ccc(F)cc3)c(=O)n(C)c2n1 25.1 µM [inhibitor, single point]
Cc1cc(C(=O)CSc2nc3ccccc3[nH]2)c(C)n1Cc1ccco1 39.8 µM [inhibitor, single point]
Cc1cc(C(=O)OCC(=O)Nc2cccc(S(N)(=O)=O)c2)c2ccccc2n1 44.7 µM [inhibitor, single point]
COc1ccc(C(C)=O)cc1CSc1nnc(C)s1 39.8 µM [inhibitor, single point]
CCCCOC(=O)c1cc(=O)[nH]c2ccc(C)cc12 11.9 µM [inhibitor, partial curve]
CCCNS(=O)(=O)c1ccc(CCC(=O)Nc2ccc3c(c2)OCO3)cc1 14.1 µM [inhibitor, partial curve]
CCOC(=O)c1[nH]c2ccc(OCC)cc2c1NC(=O)CN1CCC2(CC1)OCCO2 15.8 µM [inhibitor, partial curve]
CC(C)(C)C(=O)c1cnc(Nc2ccccc2Cl)s1 25.1 µM [inhibitor, single point]

activity, negative = inhibition, inactive:
CCN(CCn1cccn1)Cc1nc(Cc2cccc(F)c2)no1 1.8%
CCCCN1C(=O)C2C3C=CC(C2C1=O)C1C2C(=O)N(CCCC)C(=O)C2C31 (stereo unspecified) 6.27%
CN1C[C@@H]2C(c3ccc(C(F)(F)F)cc3)C3(c4cccnc4)CC2(C3)[C@H]1c1ccccc1 (stereo partly specified) 1.4%
CC(=O)c1cnn(-c2ccccc2)c1C -6.43%
Cc1nc(N/N=C/c2ccccn2)sc1C -12.4%
